Some of the results follow. Further columns of the screen follow, without active or inactive calls.
Key:
Experiment in all cases: Primary Screen for Target Class Profiling of Small Molecule Inhibitors of Methyltransferases
[1] = molecular target: Glycine N-methyltransferase (Homo sapiens) (UniProt Q14749); conditions: purified enzyme, MTase-Glo SAH luminescence; measured here: GNMT inhibition; at 40 µM; stronger effect = lower value
Method in brief: (§1)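 Each enzyme was assayed with SAM and its substrate. SAH formation detected by MTase-Glo luminescence; single-point 40 uM screen[…].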

[2] = molecular target: Guanidinoacetate N-methyltransferase (Homo sapiens) (UniProt Q14353); conditions: purified enzyme, MTase-Glo SAH luminescence; measured here: GAMT inhibition; at 40 µM; stronger effect = lower value
Method in brief: as §1

[3] = molecular target: Histamine N-methyltransferase (Homo sapiens) (UniProt P50135); conditions: purified enzyme, MTase-Glo SAH luminescence; measured here: HNMT inhibition; at 40 µM; stronger effect = lower value
Method in brief: as §1

[4] = molecular target: Nicotinamide N-methyltransferase (Homo sapiens) (UniProt P40261); conditions: purified enzyme, MTase-Glo SAH luminescence; measured here: NNMT inhibition; at 40 µM; stronger effect = lower value
Method in brief: as §1

[5] = molecular target: Phenylethanolamine N-methyltransferase (Homo sapiens) (UniProt P11086); conditions: purified enzyme, MTase-Glo SAH luminescence; measured here: PNMT inhibition; at 40 µM; stronger effect = lower value
Method in brief: as §1
% is scaled to controls: 0 for no effect and ±100 for the full control effect.

Structure (SMILES)	activity change, negative = inhibition [1] [%]	activity change, negative = inhibition [2] [%]	activity change, negative = inhibition [3] [%]	activity change, negative = inhibition [4] [%]	activity change, negative = inhibition [5] [%]
CCCCc1ncc(-c2c(-c3ccccc3)ncn2CCCn2ccnc2)[nH]1	-14.7	-14.4	-4.53	-17.9	-11
COCC(=O)N[C@@H]1CN(C2CCOCC2)CC[C@@H]1CO	-1.76	-0.994	-1.65	-1.76	-2.79
CC(Cc1cc2c(c(C(N)=O)c1)N(CCCO)CC2)NCCOc1ccccc1OCC(F)(F)F (stereo not drawn)	8.86	5.7	3.21	-10.7	-5.38
O=C(Cn1nc2n(CCc3ccccc3)c(=O)c3ccccc3n2c1=O)NC1CCCCC1	3.06	4.59	3.15	3.08	0.793
CC(C)OCCCn1c(=O)c2ccccc2n2c(=O)n(CC(=O)Nc3ccccc3F)nc12	0.959	0.316	6.2	5.87	3.14
Cc1cc(C(=O)Nc2cccc(C(=O)Nc3cccc(C(F)(F)F)c3)c2)on1	3.55	-18.5	2.88	-20.4	-7.95
Fc1ccc(CNc2nc3c(-c4ccccc4)nnn3c3ccccc23)cc1	-2.51	0	1.57	-2.73	-4.13
Cc1cc(SCc2sc(-c3ccc(C(F)(F)F)cc3)nc2C)ccc1OCC(=O)O	-35.3	-3.5	3.51	-29.2	1.57
Cc1cccc(NC(=O)Cn2c(=O)oc3cc(S(=O)(=O)N4CCCCC4)ccc32)c1C	-8.77	3.7	-1.94	-14.6	-11.6
CCCN1C(=O)c2c(C(=O)NCc3ccc(OCC)c(OC)c3)ncn2CC1(C)C(=O)NC1CCCC1 (stereo not drawn)	2.05	0	-0.353	2.95	7.34
CC(NC(=O)c1ccco1)c1nc(-c2ccc(S(=O)(=O)N3CCCC3)cc2)no1 (stereo not drawn)	-1.39	5.03	1.94	-0.194	3.15
CCC[C@@]1(CCc2ccccc2)CC(O)=C([C@H](CC)c2cccc(NS(=O)(=O)c3ccc(C(F)(F)F)cn3)c2)C(=O)O1	-8.18	-7.6	7.54	-45.1	-19.4
COC(=O)C[C@@H]1C(C(=O)O)=CO[C@@H](O[C@@H]2O[C@H](CO)[C@@H](O)[C@H](O)[C@H]2O)/C1=C\COC(=O)/C=C/c1ccc(O)c(OC)c1	3.41	8.03	5.97	-3.76	7.4
CN1CC[C@H]2CN(S(=O)(=O)c3ccc(NC(N)=O)cc3)C[C@H]21	-8.11	-10	-9.38	-8.78	-1.78
CC(C)Cn1c(=O)c2ccccc2n2c(=O)n(Cc3ccc(Cl)cc3)nc12	2.6	0.145	7.15	-6.75	4.13
CC1CCCN1c1ccc(C(=O)N2CCC(Oc3cccnc3)CC2)cn1 (stereo not drawn)	-25.6	-7.36	-8.37	-13.4	-19.9
COC(=O)N(C)Cc1cccc(N2CCN(C(c3ccccc3)c3ccccc3)CC2)c1	–	-10.1	–	-16.8	0.377
CCN1CCN(C(=O)C2Cn3cccc3C(=O)N2C)CC1 (stereo not drawn)	-3.34	-7.91	-4	-7.48	-5.39
Cc1noc(C)c1-c1ccc2c(n1)CN(CCOc1ccccc1)C(=O)CO2	-8.89	-8.14	-6.74	-20.2	-9.29
Nc1ncnc2c1nc(Sc1ccc(Cl)cc1)n2[C@H]1OC2COP(=O)(O)O[C@@H]2C1O (stereo partly drawn)	4.79	8.16	7.31	-5.31	-0.213
CCOc1ccc(CNC(=O)c2ncn3c2C(=O)N(CC)C(C)(C(=O)NC2CCCC2)C3)cc1 (stereo not drawn)	0.841	0	9.03	0.928	6.33
C=C1C(=O)O[C@@H]2[C@H]1CCC(C)=C1CCC(=O)O[C@]12C	-7.29	-5.53	2.5	-11.2	-2.63
CCOc1ccc(-c2cc3n(n2)CC(C)(C(=O)NC2CCCCC2)N(c2ccccc2C)C3=O)cc1 (stereo not drawn)	2.14	3.14	2.56	8.23	-0.118
CCCn1c(=O)c2ccc(C(=O)NC(C)CC)cc2n2c(=O)n(CC(=O)c3ccc(OCC)cc3)nc12 (stereo not drawn)	9.66	4.63	11.6	5.04	6.85
CC(=O)Nc1c2n(c3ccc(F)cc13)CC(C)(C(=O)NCCC(C)C)N(Cc1ccccc1)C2=O (stereo not drawn)	3	0.844	8.51	14.4	4.42
CCN1CCC2(CCC1=O)CN(Cc1nnc(-c3cccnc3)o1)CCN2C (stereo not drawn)	-1.17	-9.23	-4.94	-9.57	9.46
O=C(Nc1ccc(Cl)cc1)c1nc(Nc2ccccc2)c2ccccc2n1	-7.3	-1.74	-10.2	-15.6	-12.3
CC12CCC3C1C(c1c(cc(O)c(C(=O)c4ccccc4)c1O)O2)C3(C)C (stereo not drawn)	-45.3	-25.9	-61.4	-37.7	-32.6
C[C@@H]1COC(Nc2ccc3ncnc(Nc4ccc(OCc5nccs5)c(Cl)c4)c3c2)=N1	-13.3	6.09	-47.1	-15.6	-13.2

— PubChem BioAssay AID1745853 (National Center for Advancing Translational Sciences (NCATS), 2022)
